Out of some 44,000 compounds screened, about 340 (0.77%) were called active. Roughly 5% stayed inconclusive and do not appear here. Calls come from the whole dose curve; as a rule, active = well fitted inhibition curve with a large enough effect; inconclusive = small, poorly fitted or top-dose-only effect; inactive = flat fitted curve, though single readings scatter. The list shows a part of the results.
Assay: Acumen qHTS Assay for Inhibitors of the mTORC1 Signaling Pathway in MEF (Tsc2-/-, p53-/-) Cells: Sytravon; note: nearly all actives have a fitted effect of over 50% in size;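 for activity change, negative = inhibition: plate controls were DMSO for no effect and rapamycin for full effect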
Conditions: phospho-rpS6 immunofluorescence/PI, 24 h; series mostly up to 38.3 µM; activity change, negative = inhibition: at the top concentration
Outline: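 Cell-based qHTS: Tsc2-/- p53-/- MEF, 24 h cpd, 37 °C; fix/perm, anti-phospho-S6 Alexa-488 + PI; Acumen 488 nm scan; pS6/PI ratio, % positive cells; rapamycin 7.5 nM = inhibition ref; PI count = viability.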
Potency is the fitted concentration of half-maximal effect.

Activity change, negative = inhibition, inactive:
CSc1nn(Cc2ccc(Cl)cc2)c(N(C(C)=O)C(C)=O)c1S(=O)(=O)c1ccccc1 -18.3%
CCc1ccc2oc(C(=O)Nc3cccc(C(F)(F)F)c3)cc(=O)c2c1 4.39%
Cc1ccc(NC(=O)c2cc(C)nc3c2c(C)nn3-c2cccc(Cl)c2C)c(C)c1 -0.203%
Cc1cccc(Cn2c(=O)n(CCc3ccccc3)c(=O)c3c(C)c(C)sc32)c1 0.298%
C#CCOc1ccc(-c2nnc(Nc3cccc(C)c3)c3ccccc23)cc1 -10.3%
Cc1ccc(NS(=O)(=O)c2ccc3[nH]c(=O)ccc3c2)cc1N(C)C -0.843%
CCn1cc(C(=O)NCc2ccccc2OC)c(=O)c2cc(S(=O)(=O)N3CCCCC3)ccc21 4.55%
CCn1c(=O)cc(SCC(=O)NCCc2ccc(Cl)cc2)c2ccccc21 -13.4%
CCOC(=O)C1CCC(CN(Cc2ccc(Cl)cc2)S(=O)(=O)c2ccc(F)c(C(=O)Nc3cccc(F)c3)c2)CC1 (configuration not stated) 4.05%
COc1ccc(/C=C/C(=O)Nc2sc3c(c2C(N)=O)CCCC3)cc1 11%
CCOC(=O)c1cnc(NCc2ccccc2OC)c2ccccc12 -0.627%
COc1cccc2sc(=NC(=O)c3ccc(S(=O)(=O)N4CCCCC4)cc3)n(C)c12 -1.91%
COc1ccc(S(=O)(=O)N2CCCCC2)cc1C(=O)Nc1cccc(C(F)(F)F)c1 1.36%
COc1ccccc1Nc1cc(C(=O)NC2CCCC2)c2ccccc2n1 0.873%
CCN(CC)C(=O)c1sc2c(c1C)c(=O)n(Cc1ccccc1)c(=O)n2Cc1ccc(Cl)cc1 0.231%
O=C(CCS(=O)(=O)c1nc(-c2ccc3c(c2)OCO3)cc(C(F)(F)F)n1)Nc1ccccc1F -2.25%
CCN(C(=O)CCn1cnc2onc(-c3ccc(F)cc3)c2c1=O)c1ccc(OC)cc1 -0.705%
COc1ccc(Nc2nc3ccccc3c3nnc(C)n23)cc1Cl 2.79%
CCc1cccc(-n2nnc(-c3nc(-c4ccccc4Cl)no3)c2N)c1 -3.04%
Cc1ccc(NC(=O)CSc2cn(CC(=O)N3CCCCCC3)c3ccccc23)cc1 0.816%
Cc1cc(C)c(NC(=O)Cn2c(=O)n(Cc3ccco3)c(=O)c3ccc(C(=O)NC4CCCC4)cc32)c(C)c1 -6.7%
O=C(NCC(c1cccnc1)N1CCc2ccccc2C1)C(=O)Nc1ccc(Cl)cc1 (configuration not stated) 3.36%
Cc1ccc(-c2noc(CSc3nnc(Cc4ccccc4)n3-c3cccc(C)c3)n2)cc1 -11.9%
Cn1nnc2c(NCCc3ccccc3)ncnc21 -17%
CC(C)c1ccc(NC(=O)c2cccc3c2C(=O)N(C2CCCCC2)C3)cc1 4.46%
CCCc1nc2ccccc2n2c(-c3ccc(C)cc3)c3c(=O)n(C)c(=O)n(C)c3c12 -0.584%
Cc1ccc2c(c1)N(CC(=O)NCc1ccccc1Br)C(=O)c1cccnc1O2 1.25%
CCOCCCNC(=O)C(c1ccc(C)cc1)N(Cc1cccs1)C(=O)c1ccc(NC(C)=O)cc1 (configuration not stated) -1.93%
CC(=O)c1cccc(NC(=O)c2c(N3CCCC3=O)c3cc(F)ccc3n2C)c1 0%
COc1ccccc1NC(=O)c1c(NC(=O)c2ccco2)sc2c1CCC(C(C)(C)C)C2 (configuration not stated) -8.73%
CCSc1ncc(Cl)c(C(=O)Nc2c(C(=O)c3ccc(C)c(F)c3)oc3ccccc23)n1 0%
COc1cc(/C=C(\C#N)C(=O)Nc2ccc(C)cc2)ccc1OCc1cc(=O)n2nc(C)sc2n1 -1.02%
CCc1cccc(NS(=O)(=O)c2c(C)nc3sc(CC)nn3c2=O)c1 -0.647%
COc1ccc(N2CC(NC(=O)c3cc4ccccc4o3)CC2=O)cc1OC (configuration not stated) -2.16%
Cc1ccc(NC(=O)Cn2c(=O)n(CCc3ccccc3)c(=O)c3c4c(sc32)CCCC4)c(C)c1 -4.54%
CCOC(=O)c1cc(NC(=O)c2ccc(C)cc2)c(=O)n2c1oc1ccc(Cl)cc12 7.5%
O=c1oc2ccc(Br)cc2cc1-c1csc(-c2ccccc2)n1 0.623%
Cc1ccc(N2CC(NC(=O)c3ccc(S(=O)(=O)N4CCCCC4)cc3)CC2=O)cc1 (configuration not stated) -5.44%
COC(=O)c1ccc(NC(=O)c2cc(=O)c3ccc(C)cc3o2)cc1 -0.709%
CN(C(=O)C1=CC(c2ccc3c(c2)OCO3)=NS(=O)(=O)N1C)c1ccccc1 -8.33%
CCCC(=O)Nc1nnc2n1CCS2 -14.6%
O=C(CSc1nc2c(c(=O)[nH]1)CN(Cc1ccc3c(c1)OCO3)CC2)Nc1cccc(Cl)c1 -3.49%
Cc1nc2c(c(C)nn2-c2ccccc2)c(C)c1CCC(=O)NCCc1ccccc1 -0.812%
Cn1nnc2c(NCc3ccccc3Cl)ncnc21 -8.2%
CCOc1ccc(Oc2nc(NC)nc(N3CCOCC3)n2)nn1 -8.21%
CCOC(=O)c1noc2ncnc(N3CCC(C)CC3)c12 -8.47%
COc1ccc(CC(=O)NCc2nc3cccnc3n2Cc2ccc(C)cc2)cc1OC 2.4%
Cc1cccc(Cn2cc3c(=O)n(CC(=O)Nc4ccc(C)c(F)c4)nc-3c3cc(F)ccc32)c1 -10.5%
COC(=O)c1cnc(N2CCN(c3ccccc3F)CC2)c2ccccc12 -19.8%
Cc1ccc(NC(=O)C2CCN(c3nc4ccccc4[nH]3)CC2)c(C)c1 6.5%
COc1ccc(OC)c(NC(=O)c2c(NCc3cccs3)sc3c2CCCC3)c1 -6.09%
CCc1ccccc1NC(=O)c1cc(S(=O)(=O)N2CCCC2)cn1C -3.37%
Cc1cccc(N2CCN(C(=O)CCc3c(C)nc4ncnn4c3C)CC2)c1C 1.67%
COCCN1C(=O)c2[nH]nc(-c3cc(C)ccc3O)c2C1c1ccc(C(C)C)cc1 (configuration not stated) -5.53%
COc1ccccc1NC(=O)NCCN1CCN(c2cccc(Cl)c2)CC1 -4.84%
CC(C)c1cccc(C(C)C)c1NC1=NS(=O)(=O)c2ccccc21 5.25%
O=C(Cc1ccccc1)Nc1cccc(-c2cn3cccnc3n2)c1 -2.12%
CN(CC(=O)Nc1cccc(C(F)(F)F)c1)S(=O)(=O)c1cccs1 0.259%
Cc1ccc(CNS(=O)(=O)c2cc3c(cc2C)NC(=O)CO3)cc1 5.23%
COC(=O)C(C)Sc1ncnc2c1c(-c1ccccc1)cn2-c1ccc(F)cc1 (configuration not stated) -4.29%
CCOc1ccc(S(=O)(=O)Nc2ccc3c(c2)N(C(C)=O)CCC3)cc1 10.6%
Cc1cccc(C)c1-n1ncc(C(=O)N2CCN(c3ccccc3)CC2)c1C1CCN(C(=O)OC(C)(C)C)CC1 -12.6%
O=C(Cn1c(-c2cccs2)cc2ccccc21)NCCc1ccc(Cl)cc1 -11.4%
CCOc1ccccc1NC(=O)c1cc2c(=O)oc3ccccc3c2s1 -7.88%
O=C(c1ccc(CSc2nc3ccncc3n2Cc2cccc(F)c2)cc1)N1CCCCCC1 -1.14%
CC1CCCCN1c1nnc(NC(=O)Nc2ccccc2F)s1 (configuration not stated) -1.33%
Cc1ccc(/C=C/c2nc3ccccc3[nH]2)cc1 14.1%
CC(C)COc1ccc(C(=O)N(Cc2ccc(N(C)C)cc2)Cc2ccco2)cc1 -5.02%
CCc1ccc(NC(=O)CCS(=O)(=O)c2ccc3c(c2)n(C)c(=O)c(=O)n3C)cc1 -0.336%
CCC(Cn1nnc2ccccc2c1=O)NC(=O)Nc1ccc(C)c(C)c1 (configuration not stated) 1.78%
COCCCNC(=O)CSc1nc2cc(OC)c(OC)cc2c2nc(-c3ccccc3)nn12 -0.464%
CS(=O)(=O)CCC(C(=O)Nc1cccc(C(F)(F)F)c1)N1Cc2ccccc2C1=O (configuration not stated) -0.535%
CC1CCCN(C(=O)c2cc3c(Cl)nc4ccccc4c3s2)C1 (configuration not stated) -1.32%
O=C(c1ccco1)c1cn(CCOc2ccc(F)cc2)c2ccccc12 -6.28%
Cc1ccc(OCc2nc3ccccc3n2CCOc2ccc(Cl)cc2)cc1 0.48%
Cc1ccc(-c2nc(SCC(=O)NCc3ccco3)c3c(=O)n(C)c(=O)n(C)c3n2)cc1 5.73%
Cc1ccc(Nc2nnc(-c3ccc(C)c(S(=O)(=O)NCc4nc5ccccc5[nH]4)c3)c3ccccc23)cc1 -19.5%
CC(C)c1ccc(NC(=O)Cn2c(=O)n(CCc3ccccc3)c(=O)c3ccccc32)cc1 -22.5%
Cc1ccc(C(=O)Nc2cccc(-c3nc4ccccc4o3)c2)c(Cl)c1 2.39%
Cc1ccc(-c2nnc(Nc3cccc(O)c3)c3ccccc23)cc1S(=O)(=O)N1CCN(C)CC1 -19.5%
Cc1nc2nc(SCC(=O)NCc3ccccc3Cl)nn2c(C)c1Cc1ccccc1 0.519%
CCc1ccc(NC(=O)C(CC)n2c(=O)c(C(F)(F)F)nc3ccccc32)cc1 (configuration not stated) -0.454%
Cc1ccc(NC(=O)CC(C)S(=O)(=O)c2ccc3c(c2)NC(=O)CO3)cc1Cl (configuration not stated) 0.0361%
CCc1nc(-c2cc(S(=O)(=O)N3CCN(c4ccccc4OC)CC3)ccc2OC)no1 -9.18%
CCOC(=O)Cn1c(=O)c2c(nc3n2CCN3c2ccc(CC)cc2)n(C)c1=O -7.72%
COc1cc(Cl)c(C)cc1Nc1ncnc2c1nc1n2CCCC1 -4.09%
COc1ccc(Cl)cc1NC(=O)CN1C(=O)COc2ccc(S(=O)(=O)NC3CCCC3)cc21 -12.3%
COc1ccc(-c2cc(C(=O)Nc3c(C)nn(Cc4ccc(C)cc4)c3C)no2)cc1OC -1.82%
Cc1ccc(-c2nnc(Nc3ccc(O)cc3)c3ccccc23)cc1S(=O)(=O)N1CCOCC1 6.75%
COc1cccc(NS(=O)(=O)c2ccc(-c3cc(C)no3)s2)c1 -11.5%
CCOC(=O)c1cc(-c2ccccc2)n(-c2cccc(C(=O)Nc3ccc(OCC)cc3)c2)c1C -2.71%
Cc1ccc(Nc2nn3c(=O)c4cc5c(cc4nc3s2)OCO5)cc1Cl 0.156%
CN(C(=O)CSc1cn(CC(=O)N2CCOCC2)c2ccccc12)c1ccccc1 1.95%
CCCCN(CC)CCNC(=O)Cn1cc2c(n1)-c1c(oc(C(=O)N3CCCC3)c1C)CC2 1.36%
COc1cccc(Cn2c(=O)n(Cc3ccco3)c(=O)c3oc4ccccc4c32)c1 -1.88%
CC(=O)N1CCCc2cc(S(=O)(=O)N3CCC(C(=O)NCc4cccc(C)c4)CC3)ccc21 -4.75%

Potency, active:
Cc1cccc(N2CCN(C(=O)c3cnn(-c4cccc(Cl)c4C)c3C3CCNCC3)CC2)c1C 16.5 µM

— PubChem BioAssay AID493208 (National Center for Advancing Translational Sciences (NCATS), 2011)
